Measurements: PMC4336329 (PLoS ONE, 2015)
The campaign covered roughly 310,000 compounds. About 2,200 (0.71%) showed an effect of 50% or more. Effects have a minus sign here. The list shows a part of the results.

molecular target: human ether-à-go-go-related gene (hERG) potassium channel (human, UniProt Q12809); test: primary screen, population patch clamp on CHO cells stably expressing hERG
Sequence (Q12809 whole entry, looked up): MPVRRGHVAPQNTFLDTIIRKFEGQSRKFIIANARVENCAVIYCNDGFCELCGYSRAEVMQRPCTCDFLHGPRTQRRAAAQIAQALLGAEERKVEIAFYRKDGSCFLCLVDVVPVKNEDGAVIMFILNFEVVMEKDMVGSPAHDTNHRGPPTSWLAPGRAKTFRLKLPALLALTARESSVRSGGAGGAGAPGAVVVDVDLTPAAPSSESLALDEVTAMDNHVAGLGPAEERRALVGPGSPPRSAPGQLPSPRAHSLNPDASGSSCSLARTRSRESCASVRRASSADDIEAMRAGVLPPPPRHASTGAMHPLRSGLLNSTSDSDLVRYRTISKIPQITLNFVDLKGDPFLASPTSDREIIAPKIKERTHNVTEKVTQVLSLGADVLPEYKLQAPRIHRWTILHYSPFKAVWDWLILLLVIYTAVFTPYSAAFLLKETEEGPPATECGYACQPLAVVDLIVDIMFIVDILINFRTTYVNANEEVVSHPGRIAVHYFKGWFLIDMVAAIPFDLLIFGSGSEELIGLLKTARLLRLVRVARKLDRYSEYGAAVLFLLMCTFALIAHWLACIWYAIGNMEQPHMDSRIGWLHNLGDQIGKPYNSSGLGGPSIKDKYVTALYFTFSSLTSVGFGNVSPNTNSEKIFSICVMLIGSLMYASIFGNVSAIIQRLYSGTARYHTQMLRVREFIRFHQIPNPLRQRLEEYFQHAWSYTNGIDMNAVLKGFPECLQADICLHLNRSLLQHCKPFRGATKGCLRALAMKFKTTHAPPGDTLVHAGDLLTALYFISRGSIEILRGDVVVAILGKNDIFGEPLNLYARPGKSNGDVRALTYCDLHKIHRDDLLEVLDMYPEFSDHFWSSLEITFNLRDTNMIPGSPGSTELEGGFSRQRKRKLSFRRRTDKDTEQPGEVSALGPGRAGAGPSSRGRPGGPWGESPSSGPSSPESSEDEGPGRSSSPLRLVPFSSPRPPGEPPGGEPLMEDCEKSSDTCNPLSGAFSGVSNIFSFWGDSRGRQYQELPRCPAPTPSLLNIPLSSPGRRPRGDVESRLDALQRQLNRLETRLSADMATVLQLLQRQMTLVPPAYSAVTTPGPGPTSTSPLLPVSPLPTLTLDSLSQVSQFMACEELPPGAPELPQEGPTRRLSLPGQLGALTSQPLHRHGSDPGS

Row | Compound | hERG current change (%, negative = inhibition) at 1uM [%]
1 | CCCCCOC(=O)C1=C(C)Nc2nnnn2C1c1ccc(OC)c(OC)c1OC (stereo not drawn) | -0.396
2 | CC1(OC(=O)C2CCCC2)C(=O)C=C2C=C(c3ccsc3)N(Cc3ccco3)C=C2C1=O (stereo not drawn) | 0.72
3 | Cc1ccccc1C(=O)NC1CCN(CC(=O)Nc2ccccc2Cl)CC1 | 3.34
4 | O=C(NCCCNC(=O)c1ccccc1)c1ccccc1 | 15.2
5 | CC(=O)NC(Nc1nc2c(s1)CCCC2)(C(F)(F)F)C(F)(F)F | 17.3
6 | Cc1cc2cc(CNC(=O)c3cc4ccccc4o3)ccc2n1C | 5.82
7 | COc1ccc(C(CC(=O)Nc2ncccc2C)N2Cc3ccccc3C2=O)cc1OC (stereo not drawn) | 10.8
8 | CC(C)(C)c1ccc(C(=O)Nc2ccc(N3CCOCC3)cc2)cc1 | 1.55
9 | CC(C)[C@H](NC(=O)C1CCN(S(=O)(=O)c2ccccc2)CC1)C(=O)NCc1ccc(F)cc1 | 8.06
10 | CCCC(=O)C1=C(O)C(C(=O)OC)C(C)(C)CC1=NC(C)C (stereo not drawn) | 16.1
11 | CCOC(=O)c1ccc(NC(=O)c2cn(-c3ccccc3)nc2-c2ccncc2)cc1 | -0.574
12 | O=C(Nc1ccccc1)/C(=C1\CCCN1)[N+](=O)[O-] | 2.82
13 | C/C(=N/NC(=O)CNC(=O)COc1ccccc1)c1ccco1 | 4.15
14 | COc1ccc2cc(C(c3nnnn3CCc3ccccc3)N3CCCC(C)C3)c(=O)[nH]c2c1 (stereo not drawn) | -0.626
15 | Cc1cc(SCCOc2ccc(Br)cc2)nc(N)n1 | 5.6
16 | Cc1cc(N2CCOCC2)n2nc(C(F)(F)F)c(-c3ccccc3)c2n1 | 9.68
17 | O=C(Nc1ccc2c(c1)C(=O)N(CC1CCCO1)C2=O)c1ccccc1Br (stereo not drawn) | 2.87
18 | Cc1cccc(NC(=O)CSc2ccc(C(N)=O)cc2[N+](=O)[O-])c1C | 6.84
19 | O=C(Nc1ccccc1C(=O)NCCc1ccccc1)c1ccco1 | 11.5
20 | Cc1ccccc1NC(=O)c1nc(S(C)(=O)=O)ncc1Cl | 11.9
21 | Cc1cc(C)n2ncc(C(=O)NC3CCCCC3)c2n1 | 1.66
22 | CCN(C(=O)Nc1ccccc1OC)c1c(N)n(Cc2ccccc2)c(=O)[nH]c1=O | 11.8

Row | Compound | hERG current change (%, negative = inhibition) at 1uM [%]
23 | CCOC(=O)c1nn(-c2ccccc2)c(=O)c2c(N)scc12 | 8.79
24 | O=C(CSc1nnc(-c2cccnc2)s1)Nc1ccnc2ccccc12 | 6.56
25 | COCCSc1nc(N)c2c3c(sc2n1)CN(C)CC3 | 8.95
26 | O=C(c1cc(=O)[nH]c2ccc(Br)cc12)N1CCC2(CC1)OCCO2 | 7.64
27 | COc1ccc(S(=O)(=O)N2CCOC2CNC(=O)C(=O)NCCCN2CCOCC2)cc1 (stereo not drawn) | 12.4
28 | COc1ccc(C(C)=O)cc1CSc1ccc2c(c1)OCCO2 | 15.2
29 | CN(C)/C=C/C(=O)c1cnc(-c2ccccc2)s1 | 8.35
30 | Nn1c(SCc2ccc(Br)cc2)nnc1-c1ccncc1 | 3.39
31 | CC1CCCCC1NC(=O)c1ccc(S(=O)(=O)NNC(=O)c2ccncc2)cc1 (stereo not drawn) | 10.5
32 | CN(C)CCCN(C(=O)CCSc1ccccc1)c1nc2cc3c(cc2s1)OCO3.Cl | -1.2
33 | COCC(C)NC(=O)/C=C/c1ccc(OC)cc1 (stereo not drawn) | 10.2
34 | CCCN1C2CCCC1CC(NC(=O)c1ccccc1F)C2 (stereo not drawn) | -3.59
35 | CC1CCC(NC(=O)CC2Oc3ccccc3NC2=O)CC1 (stereo not drawn) | 1.39
36 | CC1(C)C2CCC1(CS(=O)(=O)Nc1ccc(S(=O)(=O)NC3CCCCC3)cc1)C(=O)C2 (stereo not drawn) | -3.91
37 | COc1ccccc1N(C(=O)c1snc(C(N)=O)c1N)C(C(=O)NCCC(C)C)c1ccco1 (stereo not drawn) | 1.98
38 | O=[N+]([O-])c1ccccc1O[C@@H]1O[C@H](CO)[C@H](O)[C@H](O)[C@H]1O | 4.7
39 | Cc1cc2cc(CNC(=O)c3ccc(S(=O)(=O)N4CCCCC4)cc3)ccc2[nH]1 | 4.59
40 | Cc1ccc(NC(=O)CSCC(=O)NNC(=O)c2nn(C)c(=O)c3ccccc23)cc1 | -7.39
41 | Cc1ccn2c(CNCCn3nc(C)cc3C)c(C(=O)N3CCCCCC3)nc2c1 | 8.17
42 | CCn1cc(SCC(=O)NCC2CCCO2)c2ccccc21 (stereo not drawn) | 16.9
43 | CNC(=S)N1N=C(c2ccccc2)CC1c1ccc(OC)c(OC)c1 (stereo not drawn) | -6.47
44 | COc1ccc(C(C)(C)C)cc1NC(=O)CCc1c(C)noc1C | 4.05

Row | Compound | hERG current change (%, negative = inhibition) at 1uM [%]
45 | COc1ccc(NC(=S)Nc2ccccc2OC)c(OC)c1 | 12.7
46 | CC1(C)CC(=O)C2=C(C1)N(c1ccccc1)C(=O)CC2c1ccsc1 (stereo not drawn) | -8.57
47 | Cc1cccc(CCNS(=O)(=O)c2ccc3c(c2)oc(=O)n3C)c1 | 0.767
48 | O=C(CCCN1C(=O)c2ccccc2C1=O)Nc1cccc(S(=O)(=O)NC2=NCCC2)c1 | 15.1
49 | CCCNS(=O)(=O)c1ccc(OCC(=O)N2CCN(c3ccccc3)CC2)cc1 | 8.51
50 | C/C(=N\NC(=O)c1cccnc1)c1ccccc1 | 11.9
51 | COC(=O)c1ccc(S(=O)(=O)N2C3CCC2CC(NC(=O)NC2CCCCC2)C3)cc1 (stereo not drawn) | 7.39
52 | Cn1c2c(c(=O)n(C)c1=O)C(C(F)(F)F)(C(F)(F)F)N=C(CCC1CCCCC1)N2 | 10.2
53 | CC(C)(C)c1cc(CN2CCCCC2)cc(C(C)(C)C)c1O | -16.6
54 | Cc1ccnc(NC(=O)c2ccc(NC(=O)c3ccco3)cc2)c1 | 4.21
55 | COc1cccc(/C=N/NC(=O)CN(CCc2ccccc2)S(=O)(=O)c2ccc(NC(C)=O)cc2)c1 | 11.6
56 | O=C1CC(SCCO)C(=O)N1c1ccc(Oc2ccccc2)cc1 (stereo not drawn) | 3.96
57 | O=C(CN1CCC(NC(=O)C2CC2)CC1)Nc1cccc(F)c1 | 8.47
58 | Cn1c(=O)c(C(=O)NNC(=O)c2ccccc2F)c(O)c2ccccc21 | 21
59 | Fc1ccc(SCCc2ccccn2)cc1 | 14
60 | NS(=O)(=O)c1cc(C2(O)NC(=O)c3ccccc32)ccc1Cl (stereo not drawn) | 8.65
61 | CC(=O)Nc1ccc(Nc2nc(C)nc3c2nnn3Cc2ccccc2Cl)cc1 | -1.49
62 | CCOC(=O)C#CC(CCc1ccccc1)OS(N)(=O)=O (stereo not drawn) | 16.2
63 | CCOC(=O)CN1C(=O)S/C(=C/c2ccc(O)c([N+](=O)[O-])c2)C1=O | 9.65
64 | CN(c1cccc(NC(=O)CN(c2cccc(Cl)c2)S(=O)(=O)c2ccc(Cl)cc2)c1)S(C)(=O)=O | 7.54
65 | COc1ccc(-c2cc(C(=O)Nc3c(C)n(C)n(-c4ccccc4)c3=O)c3ccccc3n2)c(OC)c1 | 16.8
66 | Cc1c2c(c(C)n1C)C(C(=O)NC1CCCCC1)N(Cc1ccccc1)C2=O (stereo not drawn) | 6.93

Row | Compound | hERG current change (%, negative = inhibition) at 1uM [%]
67 | CCn1nc(CC(C)C)cc1C(=O)N1CCCC(Nc2ccc(OC)cc2)C1 (stereo not drawn) | 19.1
68 | COc1ccc(C(=O)N/C(=C\c2cn(C)c3ccccc23)C(=O)NCCCN2CCOCC2)cc1OC | 18.5
69 | COc1ccc(C(C(=O)NC2CCCC2)N(C(=O)c2snc(C(N)=O)c2N)c2cccc(O)c2)cc1 (stereo not drawn) | 14.5
70 | CCc1ccc(NC(=O)c2cccnc2)cc1 | 10
71 | CC(C)n1cnnc1SCC(=O)NCC(=O)Nc1ccc(F)cc1 | 15.4
72 | O=C(NCC1CCCCC1)c1cccc(S(=O)(=O)N2CCCC2)c1 | 9.27
73 | Cc1ccc(CNC(=O)C2CC(=O)N(C3CCCCCCC3)C2)cc1 (stereo not drawn) | 9.51
74 | Cc1ccccc1OC1CCN(C(=O)C2CCC(=O)N(C3CCCC3)C2)CC1 (stereo not drawn) | 10.1
75 | COC(=O)C1=C(C)N(Cc2ccccc2)C(=NCc2cccc(C(F)(F)F)c2)N[C@H]1c1cccc(F)c1 | 9.67
76 | Br.CC[C@H]1CN2CCC1C[C@H]2[C@H](O)c1ccnc2ccc(OC)cc12.O (stereo partly drawn) | -7.59
77 | CCOC(=O)C(C)Oc1ncnc2cccc(F)c12 (stereo not drawn) | 9.04
78 | CN(C1CCCCC1)S(=O)(=O)Cc1ccccc1 | -3.15
79 | COc1ccccc1N1CCN(Cc2cccc(Br)c2)CC1.O=C(O)C(=O)O | 13.7
80 | Cc1cnc(NC(=O)c2c(-c3ccccc3)noc2C)s1 | 7.4
81 | Cc1cc(OCC(=O)Nc2nnc(C3CC3)s2)ccc1[N+](=O)[O-] | 9.15
82 | CCCn1nc2cc(C(=O)N(CC)c3ccc(OC)cc3)ccc2c1OCC | 17.4
83 | CSc1nnc(-c2sc3cc(C(F)(F)F)cnc3c2-c2ccccc2)n1C | 5.73
84 | O=C(/C=C/c1ccco1)OCC(=O)c1cccc([N+](=O)[O-])c1 | 8.47
85 | CC(=O)C1=NN(c2ccccc2)C(c2cccs2)N1c1ccccc1 (stereo not drawn) | 4.15
86 | COc1ccc(NC(=S)N2CCC(C(=O)c3ccc(C)cc3)CC2)cc1 | 6.92
87 | CC1CCCCC1NC(=O)C1CCN(C(=O)NC2CCCCC2)CC1 (stereo not drawn) | -1.4
